# According to PubChem BioAssay AID504832 (National Center for Advancing Translational Sciences (NCATS), 2011):
# Out of some 310,000 compounds screened, about 18,000 (5.8%) were called active. Inconclusive results, whose numbers are uncertain, are shown with a selection of clear calls. The call rests on the fitted dose curve; in most records, active means well fitted inhibition curve with a large enough effect; inconclusive means small, poorly fitted or top-dose-only effect, or another doubt; inactive means no such curve, though single readings can be large or run the other way. Potencies of inconclusive entries are left out as doubtful fits.
# Test: Primary qHTS for delayed death inhibitors of the malarial parasite plastid, 48 hour incubation
# Conditions: P. falciparum luciferase growth in erythrocytes; series mostly up to 28.7 µM
# Method in brief: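 Compounds are pin-transferred into medium, infected erythrocytes (2% hematocrit, 0.1% parasitemia final) are added, and plates sit one parasite generation at 37 C in 5% CO2. Detection reagent is then added and luminescence measured.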
# Potency means the concentration at half of the fitted maximal effect; tags describe the fitted curve by direction and shape.
row,Compound,Potency
1,Cc1ccc(NCc2ccc(O)c3ncccc23)cc1C,inactive
2,COc1ccc(OC)c(-n2nnnc2SCC(=O)NCc2ccc3c(c2)OCO3)c1,inactive
3,COc1cc(CNC(=O)c2ccccc2NC(=O)C2=C(C)OCCS2)cc(OC)c1OC,active: 13.1 µM
4,CC(C)(C)c1csc(Sc2ncccc2[N+](=O)[O-])n1,"inconclusive [inhibitor, full curve]"
5,CSc1nnc(NC(=O)c2ccc(S(=O)(=O)N3CCOCC3)cc2)s1,inactive
6,Cc1ccccc1N1CCN(C(=O)c2ccc(Oc3ccc(C(F)(F)F)cn3)cc2)CC1,active: 9.28 µM
7,CCC1=C(OC(=O)N(CC)CC)N2C(=O)OC(=NCCc3c[nH]c4ccccc34)[C@]2(C)[C@H]2C1=CC[C@H]1C(=O)N(CC)C(=O)[C@H]12,active: 9.28 µM
8,O=C(Nc1cccc(-c2nc3ccccc3[nH]2)c1)c1ccco1,"inconclusive [inhibitor, full curve, poor fit]"
9,Cc1cc2oc(=O)cc(Cn3ncc(Cl)c(Cl)c3=O)c2cc1Cl,"inconclusive [inhibitor, partial curve]"
10,Cc1nn(C(C)(C)C)c(C)c1/C=N/OC(=O)Nc1ccc(Cl)cc1,inactive
11,CCc1nn2cc(C(=O)c3cc(C)ccc3O)cnc2c1-c1ccc(F)cc1,active: 2.62 µM
12,c1ccc(C[n+]2c(-c3ccccc3)csc2Nc2ccccc2)cc1,"inconclusive [inhibitor, partial curve, poor fit]"
13,COc1ccc(NC(=O)CSc2nnc(CNC(=O)COc3ccc(Cl)cc3)o2)c(OC)c1,active: 13.1 µM
14,Oc1ccccc1N1CCN(c2nc(-c3cccs3)nc3ccccc23)CC1,"inconclusive [inhibitor, partial curve]"
15,COc1ccc(C2CC(c3cccs3)=NN2C(=O)CSc2nncs2)cc1OC (stereo not given),"inconclusive [inhibitor, partial curve, poor fit]"
16,COc1ccc(Nc2cc3n(c(=O)n2)CCc2cc(OC)c(OC)cc2-3)cc1,"inconclusive [inhibitor, single point]"
17,Cc1ccc(C(=O)CSc2nnc(CNc3ccc(C)cc3C)n2Cc2ccco2)cc1,"inconclusive [inhibitor, single point]"
18,CCc1ccc(C(C)(O)C(CN2CCOCC2)c2ccccc2)cc1 (stereo not given),"inconclusive [inhibitor, single point]"
19,COc1cc2c(c(OC)c1)C(=O)OC(C)CCCC(=O)CCCCC2 (stereo not given),"inconclusive [inhibitor, partial curve, poor fit]"
20,O=C1C(Nc2ccccc2)=C/C(=N/S(=O)(=O)c2cccs2)c2ccccc21,active: 0.522 µM
21,CC(C)C[C@@]12C(=O)N(c3cccc(F)c3)C(=O)N1[C@H](c1ccc(F)cc1)[C@@H]1C(=O)N(C3CCCCC3)C(=O)[C@@H]12,active: 10.4 µM
22,Cc1oc(-c2ccc(Cl)cc2)nc1CS(=O)CC(=O)NCc1ccccn1 (stereo not given),inactive
23,CC(=O)N1c2ccc(S(=O)(=O)NCC3CCC(C(=O)NC4CCCCC4C)CC3)cc2CC1C (stereo not given),"inconclusive [inhibitor, partial curve, poor fit]"
24,CCOC(=O)Cc1csc(NC(=O)CCc2ccc(S(=O)(=O)N3CCOCC3)cc2)n1,active: 2.62 µM

row,Compound,Potency
1,COc1ccc(Cl)cc1-c1n[nH]c(=S)n1C1CCCCC1,"inconclusive [inhibitor, partial curve, poor fit]"
2,COc1ccc(NC(=S)N/N=C2\CC(C)(C)Oc3ccc(O)cc32)cc1,"inconclusive [inhibitor, single point]"
3,COCCN(Cc1ccc(F)cc1)C(=O)c1cc2ccccc2oc1=O,inactive
4,O=C(NCCc1ccc(F)cc1)Nc1ccc([N+](=O)[O-])cc1,"inconclusive [inhibitor, partial curve, poor fit]"
5,CCOc1ccc(N2CC(C(=O)Nc3ccc(S(=O)(=O)N4CCCCC4)cc3)CC2=O)cc1 (stereo not given),"inconclusive [inhibitor, partial curve]"
6,CCCn1c(N)c(CC)c(=O)[nH]c1=O,"inconclusive [inhibitor, partial curve]"
7,COc1cc(C2/C(=C(\O)c3ccc4c(c3)OCCO4)C(=O)C(=O)N2Cc2ccco2)ccc1O (stereo not given),inactive
8,Cc1ccccc1CN1C2=NCCN2c2ccccc21,"inconclusive [inhibitor, partial curve, poor fit]"
9,COc1cccc(OCc2nc3ccccc3c(=O)n2N)c1,inactive
10,O=C(c1cc(C(=O)NCc2ccccc2)c(=O)n(Cc2ccccc2)c1)c1cc(Br)ccc1O,active: 1.47 µM
11,CCC(=O)Nc1nc2ccccc2n1Cc1ccc(Cl)cc1,"inconclusive [inhibitor, single point]"
12,CC1CCCC(C)N1/N=C/c1ccc([N+](=O)[O-])cc1 (stereo not given),inactive
13,Oc1ccccc1CNCc1ccccc1,"inconclusive [inhibitor, partial curve]"
14,CCN(Cc1nc2ccccc2c(=O)[nH]1)Cc1nc2ccsc2c(=O)[nH]1,"inconclusive [inhibitor, single point]"
15,COc1ccc(Cl)cc1NC(=O)N1CCN(CCc2ccccc2)CC1,"inconclusive [inhibitor, partial curve, poor fit]"
16,Cc1ccc(C)c(Sc2ccc(NC(=O)CCl)cc2)c1,"inconclusive [inhibitor, single point]"
17,O=C1CCCC2=C1C(c1cccs1)Nc1ccccc1N2 (stereo not given),inactive
18,O=C(Cc1ccc(S(=O)(=O)N2CCOCC2)s1)N(Cc1ccccc1)c1ccccc1,active: 9.28 µM
19,CC1=CCC2C(=O)N(c3cccc(C(=O)NC(C)c4ccccc4)c3)C(=O)C2C1 (stereo not given),inactive
20,CC(C)(C)c1ccc(C(=O)Nc2ccc(S(=O)(=O)Nc3cnc4ccccc4n3)cc2)cc1,active: 13.1 µM
21,CCOc1ccc(NC(=O)c2cccs2)c([N+](=O)[O-])c1,inactive
22,Nc1ccc(S(=O)(=O)C(F)(F)F)cc1N,"inconclusive [inhibitor, single point]"
23,Cc1nonc1C1CCCN1Cc1nc(-c2ccccc2Cl)oc1C (stereo not given),"inconclusive [inhibitor, single point]"
24,C[C@@H](C(=O)Nc1ccc2ccccc2c1)[C@H]1C[C@]1(C)[C@H](NC(=O)c1cccnc1)c1ccccc1,active: 5.22 µM

row,Compound,Potency
1,Clc1ccc(-n2ncc3c(NCc4cccs4)ncnc32)cc1,"inconclusive [inhibitor, single point]"
2,Cc1cccc(C)c1NC(=O)CNC(=O)Cn1nc(C)c(C)c(C#N)c1=O,"inconclusive [inhibitor, single point]"
3,CCCNC(=S)Nc1c(C)n(C)n(-c2ccccc2)c1=O,inactive
4,CCC1CCCCN1c1nc2c(C=O)c(C)nn2c2ccccc12 (stereo not given),"inconclusive [inhibitor, partial curve]"
5,O=C(Cc1ccccc1F)Nc1nc2ccccc2[nH]1,inactive
6,CCCCN(CC)C(=O)C1CCCN(S(=O)(=O)c2cccc3nsnc23)C1 (stereo not given),"inconclusive [inhibitor, single point]"
7,COc1ccc(Cl)cc1C(Nc1cccnc1)c1ccc2cccnc2c1O (stereo not given),active: 5.22 µM
8,COc1ccc(Cl)cc1NC(=O)C1CCCN(c2ncnc3c2nc2n3CCCCC2)C1 (stereo not given),"inconclusive [inhibitor, partial curve]"
9,CCc1cc2c(=O)c(-c3nc4ccccc4n3C)c(C)oc2cc1OC(C)=O,"inconclusive [inhibitor, full curve, poor fit]"
10,Cc1c(-n2c(SCC(=O)C(C)(C)C)nc3ccccc3c2=O)c(=O)n(-c2ccccc2)n1C,"inconclusive [inhibitor, single point]"
11,CCOc1cc(/C=C/C(=O)NCCc2ccc(S(N)(=O)=O)cc2)ccc1OCC(C)C,"inconclusive [inhibitor, single point]"
12,O=C(C1CC1)N1CCc2cc(Br)cc(S(=O)(=O)NCCCN3CCCC3)c21,inactive
13,Cc1ccc(NC(=O)CN2CCN(C(=O)C3CCCO3)CC2)c(C)c1 (stereo not given),"inconclusive [inhibitor, single point]"
14,O=c1oc2c(CN3CCCCCC3)c(O)ccc2cc1-c1nc2ccccc2[nH]1,active: 2.33 µM
15,COc1ccc(CNC(=O)C(C#N)c2nc3ccccc3nc2N2CCN(C)CC2)cc1 (stereo not given),"inconclusive [inhibitor, single point]"
16,O=C(c1cccc(S(=O)(=O)N2CCN(c3ccc(F)cc3)CC2)c1)N1CCCCCCC1,"inconclusive [inhibitor, single point]"
17,O=C(NCC(=O)N(c1cccnc1)C(C(=O)NC1CCCC1)c1ccc(F)cc1)c1ccco1 (stereo not given),inactive
18,CCCN1C(=O)COc2ccc(C(=O)c3ccccc3C(=O)O)cc21,"inconclusive [inhibitor, single point]"
19,O=S(=O)(c1ccc(SCCOc2ccc(Cl)cc2)nc1)N1CCCC1,active: 13.1 µM
20,COc1ccc(C(=O)NCc2ccc(C)cc2)cc1S(=O)(=O)N1CCCC1,inactive
21,CCOC(=O)C1=c2/c(=C/c3ccncc3)c(N)c(C(=O)OC)n2C(=O)C(c2ccncc2)S1 (stereo not given),inactive
22,O=C(Nc1ccccc1)c1cc2c(=O)c3ccccc3oc2nc1C(F)(F)F,"inconclusive [inhibitor, partial curve, poor fit]"
